# According to PMC7819943, “Rice protein-binding microarrays: a tool to detect cis-acting elements near promoter regions in rice”:
# The list shows a part of the results.
# Biological target: T1, OsWOX13 (Oryza sativa, UniProt Q5QMM3 1-267)
# T1 sequence: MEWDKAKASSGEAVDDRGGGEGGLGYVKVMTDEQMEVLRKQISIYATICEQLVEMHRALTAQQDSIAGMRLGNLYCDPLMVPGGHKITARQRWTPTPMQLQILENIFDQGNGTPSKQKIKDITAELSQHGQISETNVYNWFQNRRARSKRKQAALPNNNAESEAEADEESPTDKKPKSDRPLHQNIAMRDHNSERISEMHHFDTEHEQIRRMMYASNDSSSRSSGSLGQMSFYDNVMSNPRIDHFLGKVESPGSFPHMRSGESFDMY
# Assay: protein-binding microarray (RPBM); PBS, 2% BSA, 51.3 ng/ul salmon testes DNA, 50 uM zinc acetate, 200 nM TF, 25 C, 1 h; high values mean tight binding
# Conditions: protein: recombinant; tags: N-terminal polyhistidine and DsRed monomer fusion (pET32a); label: CyDye5-dUTP incorporated in the synthesized complementary strand; 3' TTTTT single-stranded linker to array surface; dsDNA, one strand shown
# Procedure, shortened: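 The binding signal is fluorescence intensity per feature, in arbitrary units, read on an Axon 4000B scanner. Polyhistidine- and DsRed-tagged transcription factors (N-terminal fusions) from E. coli BL21-CodonPlus were purified on Ni–NTA and applied at 200 nM for 1 h at 25 °C to a double-stranded, BSA-blocked custom Agilent array in buffer with 50 µM zinc acetate.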
row,Sequence,binding signal
1,ATTTAAATTGGTACCTCTTTTCTATGTCAAATGGAAATTGCGGAGTCACCTAGTGCAG,28800 fluorescence intensity (a.u.)
2,GAGAATGATTCACATGAAATTTGTGATGTCCATGTCACATCGGAGTCACCTAGTGCAG,3530 fluorescence intensity (a.u.)
3,AAATGCCAATTTAATTGGAACATCGTGATGTCAAATGAGCCGGAGTCACCTAGTGCAG,17200 fluorescence intensity (a.u.)
4,AATGACGGAAGTGATTTTGAGATAAAATGGTTGACAGTTGCGGAGTCACCTAGTGCAG,11600 fluorescence intensity (a.u.)
5,CTTGGATGATAGACATAGACTGATTAGCAAACCAATTCATCGGAGTCACCTAGTGCAG,25600 fluorescence intensity (a.u.)
6,CGAGCCAATCAAGTTGTTTTAAGGAAAGCAAACGTACGCACGGAGTCACCTAGTGCAG,10500 fluorescence intensity (a.u.)
7,ATGTGGTAATATAATTATGTGAGGAGAGTGAGACGGGTAACGGAGTCACCTAGTGCAG,5530 fluorescence intensity (a.u.)
8,ATAGTTAATTATTCCTGATTGAGTAGTATAGGGACGCACACGGAGTCACCTAGTGCAG,40700 fluorescence intensity (a.u.)
9,CCTCTAAATTGAATTACTCCGTATGTACCTTTATCACACCCGGAGTCACCTAGTGCAG,45800 fluorescence intensity (a.u.)
10,AAAGCTAAATTGATGGACGCTTGAGTCAGATTTGATCCATCGGAGTCACCTAGTGCAG,20200 fluorescence intensity (a.u.)
11,TTTCAAATTTGAATTTGAATTCAAATATCCTATTCAAATTCGGAGTCACCTAGTGCAG,4080 fluorescence intensity (a.u.)
12,ACTAACTGTGATGGTGAGAACTAATACTTCCTCCGTTTTACGGAGTCACCTAGTGCAG,3600 fluorescence intensity (a.u.)
13,TATAAATATAATTTATCCAAAGAGCATTTATAAGGACTTCCGGAGTCACCTAGTGCAG,4240 fluorescence intensity (a.u.)
14,TATAATTTAAATTCAAATTTGAATCGGGTATGTAAACTTTCGGAGTCACCTAGTGCAG,15500 fluorescence intensity (a.u.)
15,GAAAATTTACAAATCTAATCGCCTGCCGCCCTTTGGGAGGCGGAGTCACCTAGTGCAG,6470 fluorescence intensity (a.u.)
16,GATCTAGTGATTGAGAAGCTGGGTGTGCGTTCGATGATTGCGGAGTCACCTAGTGCAG,24100 fluorescence intensity (a.u.)
17,TCACTAAATTTGAATTTGTTTTGATAAATTAAAACAAATGCGGAGTCACCTAGTGCAG,25600 fluorescence intensity (a.u.)
18,TTTCACGTTTAGATGATTGGGGAAGCAGATGGGTGAAATCCGGAGTCACCTAGTGCAG,7920 fluorescence intensity (a.u.)
19,GTTAATTAATTTACTAGTGTATTCCAACCACAAAGCCGACCGGAGTCACCTAGTGCAG,51700 fluorescence intensity (a.u.)
20,AGCACTGCAATTAAACAATCTCACTAAATGCAAATCCTACCGGAGTCACCTAGTGCAG,3300 fluorescence intensity (a.u.)
21,ATGTTGCCAATCAATTCCAGCCAGGCGCACTAGCAATCTTCGGAGTCACCTAGTGCAG,16300 fluorescence intensity (a.u.)

row,Sequence,binding signal
1,TCTTAATAATTATTTCTTAATTAATTCTGTGCTAATTGTGCGGAGTCACCTAGTGCAG,54300 fluorescence intensity (a.u.)
2,CAATAATTATAATTACGATGGTTCGAATCAAAATTTCAAGCGGAGTCACCTAGTGCAG,35000 fluorescence intensity (a.u.)
3,AAAGATTAGATAGGATTCAATCCTTTATTTCAAAGGGCTTCGGAGTCACCTAGTGCAG,27000 fluorescence intensity (a.u.)
4,CTGATTATGTATAGTAATTTGAAACACGGAGATTTCAAGTCGGAGTCACCTAGTGCAG,24400 fluorescence intensity (a.u.)
5,TGCCAAATTGCCAATCCAACGGCTGCAAGAGCATAAATCCCGGAGTCACCTAGTGCAG,22400 fluorescence intensity (a.u.)
6,GAGACCGTAAATTGGCTGCTCGTCGAATTTGCAATCTTGGCGGAGTCACCTAGTGCAG,13800 fluorescence intensity (a.u.)
7,TATTGATATTAATGAATCTAGATAGATATATATGTCTAGACGGAGTCACCTAGTGCAG,6810 fluorescence intensity (a.u.)
8,CAAATTTAATTAACTGTTTAGTTTGATACTTGGCCTCATACGGAGTCACCTAGTGCAG,21100 fluorescence intensity (a.u.)
9,CTTTTGTTTCAGTCAATCTTTTAGCAAATCTTGTATCTTCCGGAGTCACCTAGTGCAG,3560 fluorescence intensity (a.u.)
10,TTAGGCTGATTGCAGAAGATTCGGTGAGTTGTTTGACACTCGGAGTCACCTAGTGCAG,16200 fluorescence intensity (a.u.)
11,TTTACTTAGTCAATCAATAGTGTCAAGTCATTTGAAACCGCGGAGTCACCTAGTGCAG,18100 fluorescence intensity (a.u.)
12,AAATTTTAAACTAAAATTTGACTGCATCATGCTGGCTTTTCGGAGTCACCTAGTGCAG,6060 fluorescence intensity (a.u.)
13,GCTTTCTAAATGTTAATTCCATCAAATAAAATAATGCAGGCGGAGTCACCTAGTGCAG,3520 fluorescence intensity (a.u.)
14,TGGTAAAACCGCGTTGTGATTGCTTCATATCCCTGGTTCCCGGAGTCACCTAGTGCAG,6790 fluorescence intensity (a.u.)
15,AACTTTTCTATCACATCATTCTAATTTCAACCAAATTTTCCGGAGTCACCTAGTGCAG,6910 fluorescence intensity (a.u.)
16,CTAAGCAAAGCATTTAATTGATACAAGTTGCTGGGATCATCGGAGTCACCTAGTGCAG,6590 fluorescence intensity (a.u.)
17,GCGATAAATTTATAATTGCCACTTATAATAGTGTATGAAACGGAGTCACCTAGTGCAG,24000 fluorescence intensity (a.u.)
18,TGTGTTAATTGCTTCTAAATATGGTTATTATTGATGATCACGGAGTCACCTAGTGCAG,44000 fluorescence intensity (a.u.)
19,CTCACCTAATTTCTATATATTTCTCTTATAATATATCCAACGGAGTCACCTAGTGCAG,3900 fluorescence intensity (a.u.)
20,AATGACAAGACGGTTGATGAGACAAGACTAAGAGTAGATTCGGAGTCACCTAGTGCAG,3840 fluorescence intensity (a.u.)
21,TGAACAATGATTGGAGCATACTAACACTACAGTACAATTACGGAGTCACCTAGTGCAG,27400 fluorescence intensity (a.u.)

row,Sequence,binding signal
1,TCTGATTGAACGAGTTTACAGATTGAGAAAGCACGCGTCACGGAGTCACCTAGTGCAG,53800 fluorescence intensity (a.u.)
2,GCTCATTAGCATATGATTAACTAGATGAATACCCCGCCACCGGAGTCACCTAGTGCAG,8730 fluorescence intensity (a.u.)
3,GTCTCTTCCTTTCATGTCTTGTATGTTATCCAAACAATATCGGAGTCACCTAGTGCAG,3980 fluorescence intensity (a.u.)
4,CCACTACTTATTCAATCACAACCCTTCACTACTCATTTCTCGGAGTCACCTAGTGCAG,5440 fluorescence intensity (a.u.)
5,TCTCTAGTAATTACAGTAAGACACACTTCTCAGAAAAGAACGGAGTCACCTAGTGCAG,3590 fluorescence intensity (a.u.)
6,AGAATGATTAGCAGATAACCACAGTACGGCAAACATGAGGCGGAGTCACCTAGTGCAG,34900 fluorescence intensity (a.u.)
7,AGGGTAAATTAATTGCCGAGAGGCCCCACTCGGGAACAGTCGGAGTCACCTAGTGCAG,27700 fluorescence intensity (a.u.)
8,CAGTTTAATTGCTCCTCGGATGGATCTGGTATAGTTCTGCCGGAGTCACCTAGTGCAG,20700 fluorescence intensity (a.u.)
9,AACTAATTTGATATTTTATATGTTGTTAAATTTTCTGTAACGGAGTCACCTAGTGCAG,19800 fluorescence intensity (a.u.)
10,TCTCCTCATCAATCCAATCTCATTAACTCATCACAAGCATCGGAGTCACCTAGTGCAG,9890 fluorescence intensity (a.u.)
11,GATTAATGATTAATTAATAATATGTTAATGAGTTTTATCCCGGAGTCACCTAGTGCAG,52500 fluorescence intensity (a.u.)
12,ATGATTACTAAAACTGTACTTAAAGGCAATGGTTTCTGTACGGAGTCACCTAGTGCAG,13900 fluorescence intensity (a.u.)
13,AATAACTCATTAAATTGCATAACCATATCACATATAGTTTCGGAGTCACCTAGTGCAG,8320 fluorescence intensity (a.u.)
14,AATTCCCATGCTGATTGCACGTCATAGGTGCATCTAGCGACGGAGTCACCTAGTGCAG,7000 fluorescence intensity (a.u.)
15,ACAAAACTATAGATTGAACTAGAATTCTCACAGTTCTGAACGGAGTCACCTAGTGCAG,6750 fluorescence intensity (a.u.)
16,AATGAGATTAAGGAGGATTTGAAAGAGATTAATCTCACACCGGAGTCACCTAGTGCAG,3310 fluorescence intensity (a.u.)
17,TTTATGTAATTATCATTTATTTTATTATGACTTGATTTGTCGGAGTCACCTAGTGCAG,18800 fluorescence intensity (a.u.)
18,GTTGACAAGAAATGACACGTGAGCATGATAGCTCAACGACCGGAGTCACCTAGTGCAG,4110 fluorescence intensity (a.u.)
19,CCGCTCTGCTCCAATCACGTATTTGTCCAAGACAAGCAACCGGAGTCACCTAGTGCAG,3860 fluorescence intensity (a.u.)
20,CATAATTAGCGTTGTTTGTTATAGGGTGTGTATAGGCCTACGGAGTCACCTAGTGCAG,32800 fluorescence intensity (a.u.)
21,CGTCGAGATTGAAGCCAACACAGCCATGCACTACTAGCTACGGAGTCACCTAGTGCAG,17100 fluorescence intensity (a.u.)

row,Sequence,binding signal
1,TCGTTGACTGATAAAACCTGGTAATTCTGGCCAAACCGGTCGGAGTCACCTAGTGCAG,32100 fluorescence intensity (a.u.)
2,ATGACTAACGTAATGTAAGTGACCATGCATATATGCATGCCGGAGTCACCTAGTGCAG,3460 fluorescence intensity (a.u.)
3,ATGGAAGCCTATTAATTGGTAATACGTAATCTAGAATTGACGGAGTCACCTAGTGCAG,13300 fluorescence intensity (a.u.)
4,TTGACAGACTGCTGCTGAAAATCAGAGTCCATGGTCAAAACGGAGTCACCTAGTGCAG,3890 fluorescence intensity (a.u.)
5,GTTGCAAAACGGGTTGTTTTAATTGATGAATATGGAAAGACGGAGTCACCTAGTGCAG,4310 fluorescence intensity (a.u.)
6,TCTAATGATAAATCATTTATCACTAATTGTAAGAGTGGTACGGAGTCACCTAGTGCAG,53400 fluorescence intensity (a.u.)
7,TCTTCCATTGGTAATTGGATGGTAGTACTATGGCAGAGTTCGGAGTCACCTAGTGCAG,3620 fluorescence intensity (a.u.)
8,TAAAACTCAATCAATCATATATTATTATCACATCGTTTTGCGGAGTCACCTAGTGCAG,50000 fluorescence intensity (a.u.)
9,TAACAGCCACTAATTATTTCTGAAATATTTGCTCGCTGTACGGAGTCACCTAGTGCAG,5380 fluorescence intensity (a.u.)
10,TTCCATGGTGATTGTAAGCCGTTCGATTAACGTGGAAAGCCGGAGTCACCTAGTGCAG,6960 fluorescence intensity (a.u.)
11,ATATGATTAATATTTTATGCGATTAATATTTTATGCGTGACGGAGTCACCTAGTGCAG,41400 fluorescence intensity (a.u.)
12,CAACTGACAGCGAATGATTTTCTTGTGTACTAACCACCACCGGAGTCACCTAGTGCAG,22100 fluorescence intensity (a.u.)
13,GTGCTGATGATTTCGTGTAACCAATTGTTCCTTTGTAACACGGAGTCACCTAGTGCAG,17200 fluorescence intensity (a.u.)
14,TTCATGAGATTATTAAATGGACTTATTTCTTTGGTCGTAGCGGAGTCACCTAGTGCAG,5020 fluorescence intensity (a.u.)
15,CCATAATCATTTAGACGACCCTGCGATGCTAGTGATAGCACGGAGTCACCTAGTGCAG,5390 fluorescence intensity (a.u.)
16,TTTAATTAACATTTATATTAATTATATATAGCCATTCTATCGGAGTCACCTAGTGCAG,31700 fluorescence intensity (a.u.)
17,CTCTCACTCTAATCATGCATTTAGACCGTTTCCATTTGCTCGGAGTCACCTAGTGCAG,7380 fluorescence intensity (a.u.)
18,TTTCATAATTTTAAGCTTCCCTAAACAGGCCCTAAGCCTGCGGAGTCACCTAGTGCAG,3890 fluorescence intensity (a.u.)
19,AATACTTAATATAATTTCGTTATAGTGTTTCATCCATGGGCGGAGTCACCTAGTGCAG,4330 fluorescence intensity (a.u.)
20,GCCATTGACTGGTGGTGGTGCAGCAAGGATGAAGAGTCATCGGAGTCACCTAGTGCAG,11000 fluorescence intensity (a.u.)
21,CATTGACATGGAGTTATGGACACCCTTCCCGCATCCTCCCCGGAGTCACCTAGTGCAG,10900 fluorescence intensity (a.u.)
